From BigSolDB 2.1

O=C(O)C1=C[C@@H](O)[C@@H](O)[C@H](O)C1
Details	solubility (mole fraction)
in ethanol, 297.45 K	0.00446
in ethanol, 302.65 K	0.00526
in ethanol, 307.75 K	0.00634
in ethanol, 312.45 K	0.00721
in ethanol, 317.55 K	0.00855
in ethanol, 322.25 K	0.01
in ethanol, 327.85 K	0.0118
in ethanol, 332.55 K	0.0139
in ethanol, 337.35 K	0.0159
in ethanol, 342.55 K	0.019
in ethanol, 348.15 K	0.0228
in isopropanol, 303.75 K	0.00099
in isopropanol, 308.95 K	0.00142
in isopropanol, 313.75 K	0.00229
in isopropanol, 319.15 K	0.00291
in isopropanol, 323.25 K	0.00412
in isopropanol, 328.25 K	0.00583
in isopropanol, 333.25 K	0.00736
in isopropanol, 337.95 K	0.00906
in isopropanol, 342.75 K	0.011
in isopropanol, 347.25 K	0.0131
in isopropanol, 352.45 K	0.0161
in n-heptane, 302.15 K	0.00343
in n-heptane, 313.65 K	0.00455
in n-heptane, 323.25 K	0.00667
in n-heptane, 328.35 K	0.00733
in n-heptane, 337.75 K	0.00969
in n-heptane, 342.65 K	0.00993
in n-heptane, 348.05 K	0.0108
in n-heptane, 352.45 K	0.0121
in n-pentanol, 304.45 K	0.00128
in n-pentanol, 313.65 K	0.00212
in n-pentanol, 323.75 K	0.00318
in n-pentanol, 328.55 K	0.00402
in n-pentanol, 332.95 K	0.0051
in n-pentanol, 338.25 K	0.00634
in n-pentanol, 342.75 K	0.00759
in n-pentanol, 352.55 K	0.0113
in n-pentanol, 357.15 K	0.014
in n-pentanol, 362.05 K	0.0172
in n-propanol, 308.15 K	0.00088
in n-propanol, 313.65 K	0.00124
in n-propanol, 318.15 K	0.0017
in n-propanol, 323.35 K	0.00217
in n-propanol, 328.55 K	0.00317
in n-propanol, 333.15 K	0.0039
in n-propanol, 337.85 K	0.00487
in n-propanol, 343.65 K	0.00661
in n-propanol, 347.55 K	0.00829
in n-propanol, 352.65 K	0.0104
in n-propanol, 357.25 K	0.0123
in n-propanol, 362.15 K	0.0156
in water, 299.55 K	0.0248
in water, 303.65 K	0.0274
in water, 308.75 K	0.0323
in water, 313.85 K	0.0374
in water, 318.45 K	0.0427
in water, 323.45 K	0.0484
in water, 328.75 K	0.0563
in water, 333.05 K	0.0637
in water, 337.05 K	0.0695
in water, 342.55 K	0.0807
in water, 352.45 K	0.102
in water, 362.15 K	0.125
